Reference: PubChem BioAssay AID485344 (National Center for Advancing Translational Sciences (NCATS), 2010)
About 6,900 (2%) of roughly 340,000 compounds were called active. Cut-off read from the data, not from the text of the source: active = inhibition above about 30%; inactive = below that, where a call was filed. Only a part is listed here, and it is no random draw. Entries without a call were filed so in the source.

Molecular target: D(2) dopamine receptor (Homo sapiens) (UniProt P14416)
Test: HTS Assay for Allosteric Antagonists of the Human D2 Dopamine Receptor: Primary Screen for Antagonists; note: 0% is about no effect
Conditions: HEK293 TREx D2 cells, calcium flux, dopamine EC80; at 10 µM; stronger effect = higher value
In short: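 Measurement of antagonist activity uses fluorescent calcium dye in inducible HEK293 T-REx D2 cells: 10 s baseline, compound addition with 180 s read, EC80 dopamine addition with a further 180 s read.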

Chain of UniProt P14416 (P14416 whole entry, looked up): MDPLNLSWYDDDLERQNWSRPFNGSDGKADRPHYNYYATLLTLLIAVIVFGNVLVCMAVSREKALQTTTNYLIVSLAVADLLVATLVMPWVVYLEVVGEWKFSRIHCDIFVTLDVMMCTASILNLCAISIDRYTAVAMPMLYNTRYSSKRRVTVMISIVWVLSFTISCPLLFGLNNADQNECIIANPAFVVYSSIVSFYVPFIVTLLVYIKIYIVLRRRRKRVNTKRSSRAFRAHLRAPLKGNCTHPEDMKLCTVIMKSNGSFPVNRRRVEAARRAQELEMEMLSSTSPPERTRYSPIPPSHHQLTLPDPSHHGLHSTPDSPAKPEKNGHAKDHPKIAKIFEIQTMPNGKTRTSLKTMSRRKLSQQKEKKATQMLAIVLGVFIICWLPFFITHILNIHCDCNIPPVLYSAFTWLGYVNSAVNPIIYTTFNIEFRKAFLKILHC

**Q.** `O=C(Nc1nc2ccc(S(=O)(=O)N3CCOCC3)cc2s1)c1cccs1` was tested. Which inhibition did it give?
**A.** active: 56.6%

**Q.** With `CCN(CC)c1ccc(NC(=O)c2sc3ccccc3c2Cl)cc1` as the compound, how does the inhibition read?
**A.** -6.43%

**Q.** With `COc1ccc(OC)c(-c2noc(N3CCN(c4cc(C)ccc4C)CC3)n2)c1` as the compound, how does the inhibition read?
**A.** -8.93%

**Q.** Which inhibition does the source give for `CCOc1ccc(NC(=O)C2CCN(S(=O)(=O)c3c(C)noc3/C=C/c3c(C)cc(C)cc3C)CC2)cc1` here?
**A.** -16.5%

**Q.** How did the inhibition turn out when `Cc1csc2ncnc(NC3CCN(Cc4ccccc4)CC3)c12` was run?
**A.** active: 78.6%

**Q.** `CCOC(=O)c1ccc(NS(=O)(=O)c2ccc3c(c2)OCCO3)cc1` was tested. Which inhibition did it give?
**A.** 3.34%

**Q.** For `CCCC(=O)Nc1cccc(-c2cn3cccnc3n2)c1`, which inhibition is on record?
**A.** 5.23%

**Q.** With `Cc1ccc(CNc2ncnc3c2c(-c2ccccc2)cn3-c2ccccc2)cc1` as the compound, how does the inhibition read?
**A.** -0.934%

**Q.** How did the inhibition turn out when `CCCSc1nc(-c2ccc(OC)cc2)cc(-c2ccccc2OC)c1C#N` was run?
**A.** -1.56%

**Q.** Which inhibition does the source give for `COc1ccc(Br)cc1CNC(=O)c1cc(=O)[nH]c2ccc(S(=O)(=O)N3CCCCC3)cc12` here?
**A.** 8.48%

**Q.** For `CC(C)Sc1n[nH]c2nc3c(c(=O)n12)C1(CCCC1)Cc1ccccc1-3`, which inhibition is on record?
**A.** active: 54.6%

**Q.** Which inhibition does the source give for `Cc1cccc(C)c1NC(=O)CN(Cc1ccc(Br)cc1)S(=O)(=O)c1ccccc1` here?
**A.** -13.1%

**Q.** For `COc1ccc(Cl)cc1Nc1cc(C)nc2nc(-c3ccccc3C)nn12`, which inhibition is on record?
**A.** -14.5%

**Q.** With `COc1ccc(-c2noc(N3CCC(C(=O)Nc4ccc(OC)c(OC)c4)CC3)n2)cc1` as the compound, how does the inhibition read?
**A.** -5.98%

**Q.** `O=c1c2cc3c(cc2n(Cc2ccccc2)c(=O)n1Cc1nc(-c2ccccc2)no1)OCO3` was tested. Which inhibition did it give?
**A.** -8.19%

**Q.** With `COc1ccc(NC(=O)N2CCN(S(=O)(=O)c3ccc4c(ccn4C)c3)CC2)cc1OC` as the compound, how does the inhibition read?
**A.** 4.63%

**Q.** With `CCC1CN(C(=O)NCc2ccccc2)c2cc(C)ccc2O1` (stereo unspecified) as the compound, how does the inhibition read?
**A.** 3.9%

**Q.** `COCCCNC(=O)C(C)n1c2ccccc2c2cnn(C)c(=O)c21` (stereo unspecified) was tested. Which inhibition did it give?
**A.** 2.66%

**Q.** How did the inhibition turn out when `O=C(Nc1ccc(Cl)c(C(F)(F)F)c1)c1ccc2c(c1)CCN2S(=O)(=O)c1ccccc1` was run?
**A.** 1.97%

**Q.** `COc1ccc(NC(=O)CN2C(=O)CSc3ccc(S(=O)(=O)N(C)C)cc32)cc1Cl` was tested. Which inhibition did it give?
**A.** -2.84%

**Q.** With `COc1cc(NS(C)(=O)=O)cc(OC)c1OC` as the compound, how does the inhibition read?
**A.** active: 30.4%

**Q.** `Cc1ccccc1Cn1nnc2c(=O)[nH]c(C3CCN(C(=O)c4ccccc4Cl)CC3)nc21` was tested. Which inhibition did it give?
**A.** 0.698%

**Q.** How did the inhibition turn out when `COc1ccc(NC(=O)C2CCN(C(=O)N3CCOc4ccccc43)CC2)cc1` was run?
**A.** -4.8%

**Q.** `Cc1ccc2occ(CC(=O)Nc3ccc(S(=O)(=O)N4CCCC(C)C4)cc3)c2c1` (stereo unspecified) was tested. Which inhibition did it give?
**A.** 2.33%

**Q.** For `Cc1ccc(-n2ncc(C(=O)NCc3ccccn3)c2C2CCN(C(=O)OC(C)(C)C)CC2)c(C)c1`, which inhibition is on record?
**A.** -18.8%

**Q.** For `COc1ccc(CNC(=O)CCCn2c(=O)c3cccn3c3ccc(F)cc32)cc1OC`, which inhibition is on record?
**A.** 11%

**Q.** How did the inhibition turn out when `CCN(C(=O)c1cc2c(=O)n(CC)c3ccccc3c2s1)c1cccc(C(F)(F)F)c1` was run?
**A.** -17.1%

**Q.** `Cn1nc(-c2ccc(OCC(=O)Nc3ccc(Cl)cc3)cc2)c2ccccc2c1=O` was tested. Which inhibition did it give?
**A.** 5.37%

**Q.** `COc1ccc(Br)cc1CNC(=O)c1cnc2sc(N3CCCCCC3)nn2c1=O` was tested. Which inhibition did it give?
**A.** -4.55%

**Q.** With `CCC(C(=O)Nc1ccccc1)n1nc(-c2cc(C)ccc2C)ccc1=O` (stereo unspecified) as the compound, how does the inhibition read?
**A.** 13.4%

**Q.** How did the inhibition turn out when `Cc1cccc(NC(=O)C2CCCN(S(=O)(=O)c3c(C)n[nH]c3C)C2)c1` (stereo unspecified) was run?
**A.** -7.88%

**Q.** How did the inhibition turn out when `CSc1ccc(CCNC(=O)Cn2ncn3c(cc4ccccc43)c2=O)cc1` was run?
**A.** -6.48%

**Q.** Which inhibition does the source give for `CCN1C(=O)N(c2ccc(C(C)=O)cc2)S(=O)(=O)c2ccccc21` here?
**A.** 19.5%

**Q.** `Cc1ccc(CN2C(=O)C(=O)c3cc(Br)cc(C)c32)cc1` was tested. Which inhibition did it give?
**A.** -0.512%

**Q.** Which inhibition does the source give for `Cc1ccccc1Nc1c(-c2cccnc2)nc2cccc(C)n12` here?
**A.** 14%

**Q.** For `CC(=O)Nc1nonc1-c1nnc(SCC(=O)Nc2cccc(C)c2C)n1-c1ccccc1`, which inhibition is on record?
**A.** -1.44%

**Q.** For `COc1cc(C(=O)Nc2cccc(OCc3cc(=O)n4cc(C)sc4n3)c2)cc(OC)c1OC`, which inhibition is on record?
**A.** -4.62%

**Q.** With `COc1ccc(Cn2cc(C(=O)c3ccc(F)cc3)c(=O)c3cc4c(cc32)OCCO4)cc1` as the compound, how does the inhibition read?
**A.** -0.913%

**Q.** With `Cc1nn(C)c(C)c1CCNC(=O)Nc1cccc(Cl)c1C` as the compound, how does the inhibition read?
**A.** -12.7%

**Q.** With `COc1ccc(-c2nc3ccccc3o2)cc1NC(=O)c1ccc(-c2ccc(Br)cc2)o1` as the compound, how does the inhibition read?
**A.** -11.4%

**Q.** With `COc1ccc(-c2nc(CCNC(=O)c3c(F)cccc3Cl)cs2)cc1` as the compound, how does the inhibition read?
**A.** 19.7%

**Q.** Which inhibition does the source give for `CCCCNc1ccc(-c2nc(-c3ccncc3)no2)cc1[N+](=O)[O-]` here?
**A.** 13%

**Q.** For `COc1cccc(NC(=O)Cn2c(=O)ccc3cc(S(=O)(=O)N4CCC(C)CC4)ccc32)c1`, which inhibition is on record?
**A.** -16%

**Q.** With `COc1ccc(Cl)cc1S(=O)(=O)N1CCN(CC(=O)Nc2ccccc2C(F)(F)F)CC1` as the compound, how does the inhibition read?
**A.** 0.836%

**Q.** With `CCOc1ccc(-n2nc3ccc(NC(=O)c4cccc(F)c4)cc3n2)cc1` as the compound, how does the inhibition read?
**A.** 2.3%

**Q.** With `CCSc1nc2c([nH]c3ccccc32)c(=O)n1-c1cccc(OC)c1` as the compound, how does the inhibition read?
**A.** 17.3%

**Q.** How did the inhibition turn out when `CCOc1ccc(-c2nnc(SCC(=O)NC(C)CC)nc2-c2ccc(OCC)c(OC)c2)cc1OC` (stereo unspecified) was run?
**A.** -14.6%

**Q.** `COc1ccc(-c2c(C#N)c(SCC(=O)Nc3ccc(C)cc3)nc(C)c2C(=O)Nc2ccccc2)cc1` was tested. Which inhibition did it give?
**A.** 8.87%

**Q.** For `Cc1ccc(CNC(=O)CSc2nc(=O)n(Cc3ccco3)c3c2CCC3)cc1`, which inhibition is on record?
**A.** -12.5%

**Q.** For `COc1ccc(C2=NC3(CCCCCC3)N(CC(=O)Nc3cccc(Cl)c3)C2=O)cc1`, which inhibition is on record?
**A.** -4.3%

**Q.** How did the inhibition turn out when `Cc1ccn2c(Nc3ccc4c(c3)OCO4)c(-c3ccc(Cl)cc3)nc2c1` was run?
**A.** -6.13%

**Q.** How did the inhibition turn out when `COc1cccc(CNC(=O)CN2CCCN(Cc3ccccc3)S2(=O)=O)c1` was run?
**A.** 20%

**Q.** Which inhibition does the source give for `O=C(Nc1ccc(F)c(F)c1)c1cc(S(=O)(=O)NCc2ccc3c(c2)OCO3)ccc1F` here?
**A.** -16.2%

**Q.** With `Cn1c2c(c(=O)n(C)c1=O)C(c1ccccc1[N+](=O)[O-])CC(=O)N2` (stereo unspecified) as the compound, how does the inhibition read?
**A.** -22.1%

**Q.** How did the inhibition turn out when `COc1ccccc1CNc1ccc(-c2nc(-c3ccccc3C)no2)cc1[N+](=O)[O-]` was run?
**A.** -1.18%

**Q.** With `CCc1ccccc1NC(=O)CSc1nc2n[nH]c(C)c2c(=N)n1-c1cccc(C)c1` as the compound, how does the inhibition read?
**A.** -16.2%

**Q.** `COc1ccc(-c2nn(-c3ccc(F)cc3)c3c2cnc2cc4c(cc23)OCO4)cc1` was tested. Which inhibition did it give?
**A.** 10.3%

**Q.** How did the inhibition turn out when `CCOc1nc(NC(=O)NS(=O)(=O)Oc2cccc(Cl)c2)nc(-c2ccccc2)n1` was run?
**A.** 2.11%

**Q.** For `Cc1cc(C)cc(NC(=O)C2CCN(C(=O)c3cnn(-c4ccccc4)c3-n3cccc3)CC2)c1`, which inhibition is on record?
**A.** 4.86%

**Q.** How did the inhibition turn out when `CCN(CC)CCNC(=O)c1ccc(NC(=O)COc2ccc3c(c2)CCC3)cc1` was run?
**A.** active: 32.3%

**Q.** `CC1CCn2c(nc3cc(C(=O)NCc4ccc(F)cc4)ccc32)C1` (stereo unspecified) was tested. Which inhibition did it give?
**A.** 10.7%
